For 120 sequences, switch fluorescence ratio results are on record in the supplement of paper PMC10126150.

Values marked as one replicate rest on one cluster of the flow cell; about a third of the high ones do not repeat.
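Also: ATP exposure 15 min at 22 °C before imaging.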

The subject of the series is ATP. Put plainly: switch fluorescence ratio, 500 uM ATP over buffer (Cy3 cluster intensity, sum of 5 cycles each) (fold (ratio)); higher = stronger signal-on switching upon ATP binding; sequences stand for … in TCGTCGGCAGCGTCAGATGTGTATAAGAGACAGTTTTTTTTTTTTTTTTTTTTTTTTT…TC. To be noted: aptamer strand: ATP DNA aptamer (quencher-CACCTGGGGGAGTATTGCGGAGGAAGG + anchor), 100 nM annealed; ATP concentration: 500 uM; one replicate. In outline:
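Imaging in selection buffer was followed by imaging after 15 min with 500 uM ATP at 22 °C, for Cy3-labelled switching-strand clusters annealed to 100 nM quencher-labelled ATP aptamer on a modified Illumina MiSeq flow-cell. Five of these buffer/ATP cycles ran, separated by NaOH stripping and re-annealing. The fluorescence ratio per cluster is summed target-cycle over summed buffer-cycle Cy3 intensity, averaged per switch-domain sequence; clusters outside 100-1000 RFU were removed.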
Take ATGGGGCCAT: the switch fluorescence ratio was 1.02.
Consider AGTACATCAA, for which the switch fluorescence ratio was found to be 1.06.
With GCAGATCAGC, the switch fluorescence ratio is 1.05.
As for AGTGAGATCA, the figure is 1.03.
As for TCGACAAATT, the figure is 0.99; as for GGGGTTCTGT, 0.944.
Turning to ATCTGAAAGA, the switch fluorescence ratio was determined as 0.969.
As for GGGAGAGCAG, the switch fluorescence ratio turned out to be 0.988.
Consider AGGGACGTGC, for which the switch fluorescence ratio stood at 0.946.
In the case of AGTTCAGAGA, the switch fluorescence ratio came to 0.971.
CTGTGACATC: the switch fluorescence ratio turned out to be 1.03.
For ATGCTGGGAG, the switch fluorescence ratio was determined as 0.988.
On to CAGTTGATTG, for which the switch fluorescence ratio worked out at 1.02.
TAAAGTCGGG: the switch fluorescence ratio worked out at 1.01.
As to CGCTGTGTCT, the switch fluorescence ratio is 1.02.
As for CGACGTGGAC, the figure is 4.55; as for TGTCTGGCGG, 1.19; as for AATATAAAAG, 1.02.
As for CCGCCCCCTT, the figure is 1.11; as for GAGGGCCAAC, 0.95; as for CCGGTTGGTT, 0.984.
Take CGGGGATCTT: the switch fluorescence ratio was 0.937.
As for GGGCCACCTC, the figure is 1.03; as for CCAAGTGTTT, 1.02.
As to TATCTACCCG, the switch fluorescence ratio came to 1.06.
As for TTGAACTGCA, the switch fluorescence ratio was found to be 1.04.
In the case of AAGAGTTGGA, the switch fluorescence ratio was 1.04.
For the sequence AAGGGATAGC, the switch fluorescence ratio turned out to be 0.973.
TGCGGCATCA: the switch fluorescence ratio turned out to be 1.03.
In the case of ACCAAAAAT, the switch fluorescence ratio was determined as 1.02.
Regarding AAGGAGAATC, the switch fluorescence ratio is 1.11.
Consider ATGTGAATTA, for which the switch fluorescence ratio is 0.978.
Take GGTGGCGAAA: the switch fluorescence ratio came out at 1.02.
For GCACTGCTCG, the switch fluorescence ratio came out at 1.05.
Next, ACCAGATGGC: 1.03; TCTCACAATT: 1.13.
Next, CAGTCACGGA: 0.982.
For the sequence TTTAGATCTG, the switch fluorescence ratio was determined as 1.07.
In the case of GTAATTGGTT, the switch fluorescence ratio is 0.987.
For AGGCCCTTTC, the switch fluorescence ratio came out at 1.13.
For the sequence GCGGTAAGCC, the switch fluorescence ratio was 0.991.
As for TTAGCCACTA, the switch fluorescence ratio worked out at 1.03.
As for TAAGAAGTGC, the figure is 0.946.
Consider GCGATAAAGT, for which the switch fluorescence ratio is 0.969.
In the case of GGATATATGA, the switch fluorescence ratio was 1.02.
Next, CATTGCTCAG: 1.02; CTCTGCGCAT: 3.89; ACGATTAACG: 1.05.
On to TCATAATGAC, for which the switch fluorescence ratio came out at 1.04.
For the sequence GGGTTGCAAA, the switch fluorescence ratio was 0.983.
As for AGAATGTCTG, the figure is 1.01; as for CGTATTGGTA, 0.982.
AACTTGGTTC: the switch fluorescence ratio came to 0.991.
With CCGGAGGCGT, the switch fluorescence ratio turned out to be 1.17.
With ACCAGCACCA, the switch fluorescence ratio was 1.16.
Next, GATCTCCTTC: 1.03; CGGTACATGA: 0.965; GGTAGGGGAT: 1.06.
For ATATGAAGCA, the switch fluorescence ratio is 0.982.
As to TTGAGGCTAC, the switch fluorescence ratio is 2.7.
Consider GCTCCGGTCA, for which the switch fluorescence ratio came to 1.82.
For TGGGGTTCCT, the switch fluorescence ratio came to 1.03.
Regarding TCTCGCTGC, the switch fluorescence ratio is 2.42.
As for AGGCTTTGAT, the figure is 0.979; as for ACCGGGTCTT, 0.967.
For the sequence GCCTCGGA, the switch fluorescence ratio is 0.966.
For the sequence TGGGCTTGCA, the switch fluorescence ratio turned out to be 0.981.
Consider AGAAGGATAG, for which the switch fluorescence ratio was 0.951.
Turning to GTGTGCTTGG, the switch fluorescence ratio came to 0.99.
As to CAAAGTCCAG, the switch fluorescence ratio was 1.02.
With GGGAACCGA, the switch fluorescence ratio is 0.979.
In the case of GTGCGTTGGC, the switch fluorescence ratio was determined as 0.982.
Turning to TTTATGTACA, the switch fluorescence ratio was 1.03.
Regarding ACAGTGTCCA, the switch fluorescence ratio amounted to 1.01.
As to GTTGCCGCTG, the switch fluorescence ratio stood at 1.05.
With CAGAATTTGT, the switch fluorescence ratio is 1.03.
Next, AAGCGCCGTG: 1.05; CGTATTGCAT: 0.99; GCGACGAGCC: 1.07.
With AATGCGCCGC, the switch fluorescence ratio was found to be 0.998.
As for AAAATCGACT, the figure is 1.01.
As to GACTCATGGT, the switch fluorescence ratio worked out at 1.02.
As for GTTGGCTTTT, the figure is 0.967; as for CTCCCGAGAA, 1.13.
With GTAGGCAGCG, the switch fluorescence ratio was found to be 1.06.
ATGTAGAAAG: the switch fluorescence ratio came to 0.976.
CTAGTGGGGG: the switch fluorescence ratio stood at 0.984.
With GCACTCGTTT, the switch fluorescence ratio amounted to 0.956.
On to TTGTCAGCCA, for which the switch fluorescence ratio is 1.05.
For CGGAGGCTCC, the switch fluorescence ratio came out at 4.52.
For the sequence ACTTATGAGC, the switch fluorescence ratio stood at 1.02.
As to CCTGCAAACG, the switch fluorescence ratio was 4.16.
As to TCGGTAATTT, the switch fluorescence ratio was 1.01.
For the sequence CAAAGAAGCG, the switch fluorescence ratio is 1.05.
Consider ACTAGCAGGG, for which the switch fluorescence ratio is 1.02.
For the sequence CCAATCAGCA, the switch fluorescence ratio was 1.1.
As to ACCTTTGGGG, the switch fluorescence ratio came to 1.21.
As to GGACCAGGCT, the switch fluorescence ratio worked out at 0.992.
With AGTATGCCGT, the switch fluorescence ratio is 1.02.
Take GCCGAGGAAA: the switch fluorescence ratio was 1.05.
AGGGAATGCC: the switch fluorescence ratio was found to be 1.
Regarding TTATAGGGAA, the switch fluorescence ratio was 1.01.
For the sequence AATTAGGCT, the switch fluorescence ratio came out at 0.997.
Take AGGGACGTGT: the switch fluorescence ratio stood at 1.02.
Next, TATTCGTACG: 0.966; CCGGAGTCTT: 4.08; TACGGTAAGG: 1.09.
Consider GACCTGATTA, for which the switch fluorescence ratio was 0.999.
Take TCTTTTCTAG: the switch fluorescence ratio came to 1.
Take GCAACATTGT: the switch fluorescence ratio was found to be 0.984.
With TCTGCAGCCC, the switch fluorescence ratio was 2.17.
Consider CGGAGCGAGG, for which the switch fluorescence ratio was 1.56.
As for TGGCATGGCG, the figure is 0.958; as for CGAAAGATCG, 1.03.
Regarding CCGCGAGGGA, the switch fluorescence ratio amounted to 1.08.
TCTTCGTGGT: the switch fluorescence ratio was 1.05.
As for TTACATCAGA, the figure is 1.02; as for CACTACGACA, 1.25.
Turning to CGCGATAAGC, the switch fluorescence ratio was 1.29.
Next, TGGTGCAATT: 1.04.
